The source gives no read counts; variants with many changes may rest on few reads.
B1: CPEB3 Ribozyme (parent)
chain: UAACAGGGGGCCACAGCAGAAGCGUUCACGUCGCAGCCCCUGUCAGAUUCUGGUGAAUCUGCGAAUUCUGCUGUAUAUCUC

Variants of: B1
Experiment: self-cleavage, relative activity (ratio to wild type); higher = more cleavage; in vitro, sequencing
How it was run: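 Libraries of CPEB3 self-cleaving ribozyme mutants came from rounds of error-prone PCR and carried barcodes, which DNA sequencing matched to variants. In vitro transcription used T7 RNA polymerase at 37°C for 5 hours, with a further 15 min in DNase I before EDTA stopped the reaction; the ribozymes cleaved during both steps. The RNA was reverse transcribed with template switching and sequenced on Illumina. Relative activity is the cleaved/total read fraction of a variant divided by that of the unmutated ribozyme, averaged over three batches with at least 5 reads.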

**Q.** Which self-cleavage does the source give for UAACAGGGGGCCACAGCAGAAGCGUUCACGUCGCGGCCCCAGCCAGAUUCUGGUGAAUCUGCGAAUUCUGCUGUAUAUCUC [A35G U41A U43C] here?
**A.** 0.17

**Q.** With UAACAGGGGGCCACAGCAGAAGCGUUCACGUCGCGGCCCCAGUCAGAUCCUGGUGAAUCUGCGAAUCCUGCUGUAUAUCUC [A35G U41A U49C U67C] as the variant, how does the self-cleavage read?
**A.** 0.15

**Q.** With UAACAGGGGGCCACAGCAGAAGCGUUCACGUCGCGGCCCCAGUCAGAUUCAGGUGAAUCUGCGAAUUCUGCUGCAUAUCUC [A35G U41A U51A U74C] as the variant, how does the self-cleavage read?
**A.** 0.69

**Q.** For UAACAGGGGGCCACAGCAGAAGCGUUCACGUCGCGGCCCCAGUCAGAUUCCGGUGAACCUGCGAAUUCUGCUGUAUAUCUC [A35G U41A U51C U58C], which self-cleavage is on record?
**A.** 0.25

**Q.** Which self-cleavage does the source give for UAACAGGGGGCCACAGCAGAAGCGUUCACGUCGCGGCCCCAGUCAGAUUCUGGCGAAUCUGCGAAUUCCGCUGUACAUCUC [A35G U41A U54C U69C U76C] here?
**A.** 0.14

**Q.** For UAACAGGGGGCCACAGCAGAAGCGUUCACGUCGCGGCCCCCGUCGGAUUCUGGUGCAUCUGCUAAUUCUGCUGUAUAUCUC [A35G U41C A45G A56C G63U], which self-cleavage is on record?
**A.** 1.04

**Q.** For UAACAGGGGGCCACAGCAGAAGCGUUCACGUCGCGGCCCCCGUCAUAUUCUGGUGAAUCUGCGAAUUCCGCCGUAUAUCCC [A35G U41C G46U U69C U72C U80C], which self-cleavage is on record?
**A.** 0.22

**Q.** With UAACAGGGGGCCACAGCAGAAGCGUUCACGUCGCGGCCCCCGACAGAUUCUGGUGAAUCUGCGAAUUCAGCUGUAUAUCCC [A35G U41C U43A U69A U80C] as the variant, how does the self-cleavage read?
**A.** 0.65

**Q.** For UAACAGGGGGCCACAGCAGAAGCGUUCACGUCGCGGCCCCCGUCAGAUUCUGGUGAAUCUGCGAAUUCUGCAGUAUAUCUC [A35G U41C U72A], which self-cleavage is on record?
**A.** 1.24

**Q.** Which self-cleavage does the source give for UAACAGGGGGCCACAGCAGAAGCGUUCACGUCGCGGCCCCGGUCAGAUUCUGGUGAAUCUGCGAAUUUCGCUGUAUAUCUC [A35G U41G C68U U69C] here?
**A.** 0.11

**Q.** Which self-cleavage does the source give for UAACAGGGGGCCACAGCAGAAGCGUUCACGUCGCGGCCCCGGUCAGAUUCAGGUGAAUCUGCGAACUCUGCUGUAUAUCUC [A35G U41G U51A U66C] here?
**A.** 0.16

**Q.** For UAACAGGGGGCCACAGCAGAAGCGUUCACGUCGCGGCCCCUGACAGAUUCUGGAGAAUCUGAGCAUUCUGCUGUAUAUCUC [A35G U43A U54A C62A A64C], which self-cleavage is on record?
**A.** 0.46

**Q.** With UAACAGGGGGCCACAGCAGAAGCGUUCACGUCGCGGCCCCUGCCGGGUUCUAGUGAAUCUGCGAAUACUGCUGUAUAUCUC [A35G U43C A45G A47G G52A U67A] as the variant, how does the self-cleavage read?
**A.** 0.4

**Q.** Which self-cleavage does the source give for UAACAGGGGGCCACAGCAGAAGCGUUCACGUCGCGGCCCCUGCCUGAUUCUGGUGAAUCUGCGAAUCCUGCUGUAUAUCUC [A35G U43C A45U U67C] here?
**A.** 0.52

**Q.** With UAACAGGGGGCCACAGCAGAAGCGUUCACGUCGCGGCCCCUGCCAGAUUCUGGUGGAUCUGCGAAUUCUGCUGCAUAUCUC [A35G U43C A56G U74C] as the variant, how does the self-cleavage read?
**A.** 0.95

**Q.** Which self-cleavage does the source give for UAACAGGGGGCCACAGCAGAAGCGUUCACGUCGCGGCCCCUGCCAGAUUCUAGUGAAUCUGCGGAUUCUGCUGUAUAUCAC [A35G U43C G52A A64G U80A] here?
**A.** 1.26

**Q.** Which self-cleavage does the source give for UAACAGGGGGCCACAGCAGAAGCGUUCACGUCGCGGCCCCUGCCAGAUACUGGUGAACCUGCGAAUUCUGCUGUAUAUCUC [A35G U43C U49A U58C] here?
**A.** 0.03

**Q.** With UAACAGGGGGCCACAGCAGAAGCGUUCACGUCGCGGCCCCUGCCAGAUUCUGGUGAAUCCGCGAAUUCUGCUGUAUAUCUC [A35G U43C U60C] as the variant, how does the self-cleavage read?
**A.** 0.46

**Q.** For UAACAGGGGGCCACAGCAGAAGCGUUCACGUCGCGGCCCCUGUCAGAAUCUGGUGAAUCUGCGAGUUCAGCUGUAUAUCUC [A35G U48A A65G U69A], which self-cleavage is on record?
**A.** 0.25

**Q.** Which self-cleavage does the source give for UAACAGGGGGCCACAGCAGAAGCGUUCACGUCGCGGCCCCUGUCAGACUCUGGUGAAUCUGCGAAUUCUGCUGCAUAUCUC [A35G U48C U74C] here?
**A.** 1.14

**Q.** With UAACAGGGGGCCACAGCAGAAGCGUUCACGUCGCGGCCCCUGUCAGAUCCUGGUGAAUCCGCGAAUUCUGCUGUAUAUCUC [A35G U49C U60C] as the variant, how does the self-cleavage read?
**A.** 0.22

**Q.** For UAACAGGGGGCCACAGCAGAAGCGUUCACGUCGCGGCCCCUGUCAGAUUCAGGUGAACCUGCGAAUUCUGCUGUAUAUCCC [A35G U51A U58C U80C], which self-cleavage is on record?
**A.** 1.23

**Q.** For UAACAGGGGGCCACAGCAGAAGCGUUCACGUCGCGGCCCCUGUCAGAUUCAGGUGAAUCUGCGAAUUCUGCUGUAUACCUC [A35G U51A U78C], which self-cleavage is on record?
**A.** 1.35

**Q.** With UAACAGGGGGCCACAGCAGAAGCGUUCACGUCGCGGCCCCUGUCAGAUUCAGGUGAAUCUGCGAAUUCUGCUGUAUAUCCC [A35G U51A U80C] as the variant, how does the self-cleavage read?
**A.** 1.28

**Q.** For UAACAGGGGGCCACAGCAGAAGCGUUCACGUCGCGGCCCCUGUCAGAUUCCGGUGAAUCUGCGAAUUCCGCUGUAUACCUC [A35G U51C U69C U78C], which self-cleavage is on record?
**A.** 0.98

**Q.** Which self-cleavage does the source give for UAACAGGGGGCCACAGCAGAAGCGUUCACGUCGCGGCCCCUGUCAGAUUCCGGUGAAUCUGCGAAUUCUGCUGUACAUCUC [A35G U51C U76C] here?
**A.** 1.27

**Q.** With UAACAGGGGGCCACAGCAGAAGCGUUCACGUCGCGGCCCCUGUCAGAUUCUGGAGUGUCUGCGAAUUCUGCUGUACAUCUC [A35G U54A A56U A57G U76C] as the variant, how does the self-cleavage read?
**A.** 1.1

**Q.** Which self-cleavage does the source give for UAACAGGGGGCCACAGCAGAAGCGUUCACGUCGCGGCCCCUGUCAGAUUCUGGAGAAUCUGCGAAUUCUGCUGAAUAUCUC [A35G U54A U74A] here?
**A.** 1.31

**Q.** For UAACAGGGGGCCACAGCAGAAGCGUUCACGUCGCGGCCCCUGUCAGAUUCUGGAGAAUCUGCGAAUUCUGCUGUAUAUCCC [A35G U54A U80C], which self-cleavage is on record?
**A.** 1.28

**Q.** With UAACAGGGGGCCACAGCAGAAGCGUUCACGUCGCGGCCCCUGUCAGAUUCUGGCGAAUCUGCGAAUUCCGCUGUAUAUCCC [A35G U54C U69C U80C] as the variant, how does the self-cleavage read?
**A.** 0.96

**Q.** For UAACAGGGGGCCACAGCAGAAGCGUUCACGUCGCGGCCCCUGUCAGAUUCUGGCGAAUCUGCGAAUUCUGCAGUUUAUCUC [A35G U54C U72A A75U], which self-cleavage is on record?
**A.** 1.25

**Q.** With UAACAGGGGGCCACAGCAGAAGCGUUCACGUCGCGGCCCCUGUCAGAUUCUGGUGAACUUGCGAAUUCUGCUGUAUAUCUC [A35G U58C C59U] as the variant, how does the self-cleavage read?
**A.** 0.73

**Q.** With UAACAGGGGGCCACAGCAGAAGCGUUCACGUCGCGGCCCCUGUCAGAUUCUGGUGAACCUGCGAAUCCUACUGUAUAUCUC [A35G U58C U67C G70A] as the variant, how does the self-cleavage read?
**A.** 0.55

**Q.** With UAACAGGGGGCCACAGCAGAAGCGUUCACGUCGCGGCCCCUGUCAGAUUCUGGUGAAUCAGCGAAUUCUGCUGUAUACCUC [A35G U60A U78C] as the variant, how does the self-cleavage read?
**A.** 1.27
